According to PubChem BioAssay AID686979 (National Center for Advancing Translational Sciences (NCATS), 2013):
Several values for one entry are separate records, joined by “and”; a condition that tells them apart may be missing. Equal entries are not always repeated. The campaign covered roughly 420,000 compounds. About 50,000 (12%) were called active. Inconclusive results, whose numbers are uncertain, are shown with a selection of clear calls. Calls follow the shape of the dose curve; as a rule, active = well fitted inhibition curve with a large enough effect; inconclusive = small, poorly fitted or top-dose-only effect; inactive = flat fitted curve, though single readings scatter. Potencies beside an inconclusive call are fits to weak or partial responses and may not hold up.

Assay: qHTS for Inhibitors of human tyrosyl-DNA phosphodiesterase 1 (TDP1): qHTS in cells in presence of CPT; also: nearly all actives have a fitted effect of over 55% in size
Settings: chicken DT40 Tdp1-/-;hTDP1 cells + 20 nM CPT, ATP luminescence, 48 h; activity change, negative = growth inhibition: at 46.2 µM (top of the series)
How it was run: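 Chicken DT40 Tdp1-/- cells stably complemented with human TDP1 were seeded at 400 cells/well in medium containing 20 nM camptothecin, exposed to pin-transferred compounds, and grown at 37 °C for at least 48 hr. Viability was read as ATP luminescence.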
% is scaled to controls: 0 for no effect and ±100 for the full control effect; potency is read from the fitted curve at half-maximal effect; tags tell the direction and shape of the fitted curve.

SMILES	Potency	activity change, negative = growth inhibition
c1cncc(Nc2nc(-c3ccncc3)cs2)c1	inconclusive: 29.1 µM [inhibitor, single point]	–
Cc1ccc(NC(=O)CC(O)(C(F)(F)F)C(F)(F)F)c(Br)c1	–	inconclusive: -31.2% [inhibitor]
Cc1ccc(NC(=O)C2CCN(S(=O)(=O)c3cccs3)CC2)cc1	inactive and inconclusive: 29.1 µM [inhibitor, single point]	–
C=CCOC(=O)C1=C(C)OC(N)=C(C#N)C1c1ccc(F)cc1 (stereo unspecified)	inconclusive: 11.6 µM [inhibitor, partial curve]	–
COC(=O)C1CCN(Cc2c(C(=O)N3C[C@@H](C)O[C@@H](C)C3)nc3ccc(Cl)cn23)CC1	–	inactive: 10.7%
COc1ccccc1-c1oc2ccccc2c1-c1ccc2c(c1)OCO2	inconclusive: 20.6 µM [inhibitor, partial curve]	–
CC(C)c1ccccc1OCC(=O)Nc1ccccc1C(=O)N1CCOCC1	active: 16.4 µM	–
CCC(=O)N1CCc2cc(S(=O)(=O)CCC(=O)NCc3ccccc3Cl)ccc21	inconclusive: 23.1 µM [inhibitor, single point]	–
CCCc1nn2c(=O)cc(COC(=O)c3ccccc3NC(=O)C3CCCCC3)nc2s1	inconclusive: 23.1 µM [inhibitor, single point]	–
COc1cc(/C=C/C(=O)OCC(=O)Nc2cc(C(F)(F)F)ccc2N2CCOCC2)ccc1O	inconclusive: 29.1 µM [inhibitor, single point]	–
COc1ccc(N=C2NC(=O)/C(=C\C=C\c3ccco3)S2)cc1	inconclusive: 29.1 µM [inhibitor, partial curve, poor fit]	–
Cc1nn(CC(=O)Nc2ccc(N3CCOCC3)cc2)c(C)c1[N+](=O)[O-]	–	inactive: -0.835%
COCCN(C(=O)COC(=O)c1ccccc1NCc1ccco1)c1c(N)n(Cc2ccccc2)c(=O)[nH]c1=O	inconclusive: 29.1 µM [inhibitor, single point]	–
N#Cc1ccc(OCC(=O)Nc2ccc(N3CCCC3)cc2)cc1	inconclusive: 14.6 µM [inhibitor, partial curve]	–
CCc1ccc(OCC(=O)NNC(=O)C2CCC2)cc1	–	inactive: -0.603%
O=C1CC(c2ccccc2Cl)CC(O)=C1C=Nc1ccccc1 (stereo unspecified)	inconclusive: 16.4 µM [inhibitor, single point]	–
COc1ccccc1Cn1c(=O)c2ccccc2n2c(Sc3ncnc4sccc34)nnc12	active: 20.6 µM	–
CC1(C(=O)Nc2cnc3ccccc3c2)CCN1Cc1ccccc1OC(F)F (stereo unspecified)	active: 23.1 µM	–
Cc1cccc(N(C)C(=O)COc2cc(=O)n(C)c3ccccc23)c1	inconclusive: 16.4 µM [inhibitor, single point]	–
O=C(NCC1CCCO1)C(Cc1ccccc1)N1C(=O)C2C3C=CC(C4CC34)C2C1=O (stereo unspecified)	inconclusive: 18.4 µM [inhibitor, single point]	–
CC(C)n1c(=O)c2ccccc2n1Cc1cn(CCc2c[nH]c3ccccc23)nn1	inconclusive: 29.1 µM [inhibitor, single point]	–

SMILES	Potency	activity change, negative = growth inhibition
CCN(CC)C(=O)C1=C(C)N(CCC2=CCCCC2)C(=O)C(CC(=O)NCc2ccco2)C1 (stereo unspecified)	inconclusive: 20.6 µM [inhibitor, single point]	–
COc1cc2c(cc1NC(=O)COc1ccccc1OC)oc1ccccc12	inconclusive: 13 µM [inhibitor, partial curve]	–
CC(=O)Oc1ccc(/C=C(\NC(=O)c2cccc(Br)c2)C(=O)Nc2ccc(C(=O)O)cc2)cc1	–	inactive: -10.2%
COCCCNC(=O)N1CCN(c2nnc(C)c3c(C)n(-c4ccc(Cl)cc4)nc23)CC1	–	inactive: -9.83%
COc1ccccc1NC(=S)NNC(=O)c1ccccc1	inconclusive: 18.4 µM [inhibitor, single point]	–
CCc1ccc(NC(=O)CN(c2ccc(C)cc2)S(=O)(=O)c2c(C)nn(C)c2C)cc1	inconclusive: 29.1 µM [inhibitor, single point]	–
O=C(Nc1c(C(=O)N2CCC(N3CCCCC3)CC2)oc2ccccc12)c1ccc(F)cc1	inconclusive: 29.1 µM [inhibitor, single point]	–
Cc1ccc(-n2c(SCc3nc(-c4ccc(Cl)cc4)no3)nnc2-c2ccncc2)cc1	active: 14.6 µM	–
Cc1cccc(OCC(=O)Nc2ccc(N3CCN(C(=O)c4ccco4)CC3)cc2)c1C	inconclusive: 13 µM [inhibitor, partial curve, poor fit]	–
O=C(Nc1ccc(S(=O)(=O)N2CCCC2)cc1)C1CC(=O)N(CCc2ccccc2)C1 (stereo unspecified)	inconclusive: 7.31 µM [inhibitor, partial curve]	–
CCOC(=O)CNC(c1ccccc1)c1cc(Br)ccc1NC(=O)OCC (stereo unspecified)	inconclusive: 18.4 µM [inhibitor, single point]	–
COc1ccc(C(=O)OCc2cc(=O)n3c(C)csc3n2)cc1F	inconclusive: 20.6 µM [inhibitor, single point]	–
Cc1ccc(OCC(=O)NNC(=O)C2CCN(c3nc(C)cc(C)n3)CC2)cc1	–	inactive: -15.7%
CCN1c2ccccc2-c2nc3ccccc3n2C1c1ccco1 (stereo unspecified)	active: 20.6 µM	–
O=C(Nc1ccc(Br)cc1)c1ccc(F)c(S(=O)(=O)N2CCN(c3ccccn3)CC2)c1	inconclusive: 13 µM [inhibitor, partial curve]	–
CCCC(C(=O)Nc1ccc(S(=O)(=O)N2CCOCC2)cc1)c1ccccc1 (stereo unspecified)	inconclusive: 29.1 µM [inhibitor, partial curve, poor fit]	–
COc1ccc(/C=C2\SC(=S)N(CCC(=O)N3CCCCC3)C2=O)cc1	inconclusive: 18.4 µM [inhibitor, single point]	–
O=C(COC(=O)c1ccccc1O)Nc1cc([N+](=O)[O-])ccc1Cl	–	inactive: 3.8%
CC(=O)Nc1ccc(S(=O)(=O)NCC(CCC(=O)O)C(F)(F)F)cc1 (stereo unspecified)	inconclusive: 29.1 µM [inhibitor, single point]	–
CCC(C(=O)NC1CCCC1)N(C(=O)Cn1nnc(-c2ccc(C)o2)n1)c1cnc2ccccc2c1 (stereo unspecified)	inconclusive: 18.4 µM [inhibitor, single point]	–
